Measurements: PMC6919601, “Identification of Plasmodium dipeptidyl aminopeptidase allosteric inhibitors by high throughput screening” (PLoS ONE, 2019)
“And” between values parts separate entries of the source, which are not always exact repeats. Equal values may be shown once. Screen size: about 110,000 compounds; about 230 (0.21%) showed an effect of 50% or more. This is one part of the list.

biological target: DPAP1 (Plasmodium falciparum, UniProt Q8IIJ9); test: primary screen, percent inhibition; read by cleavage of a fluorogenic dipeptide substrate; higher = more effect of the substance; design: species or system P. falciparum D10 trophozoite lysates; single well
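Further: 30 min substrate incubation versus DMSO and 10 µM JCP410 controls.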

Chain of DPAP1 (Q8IIJ9 whole entry, looked up): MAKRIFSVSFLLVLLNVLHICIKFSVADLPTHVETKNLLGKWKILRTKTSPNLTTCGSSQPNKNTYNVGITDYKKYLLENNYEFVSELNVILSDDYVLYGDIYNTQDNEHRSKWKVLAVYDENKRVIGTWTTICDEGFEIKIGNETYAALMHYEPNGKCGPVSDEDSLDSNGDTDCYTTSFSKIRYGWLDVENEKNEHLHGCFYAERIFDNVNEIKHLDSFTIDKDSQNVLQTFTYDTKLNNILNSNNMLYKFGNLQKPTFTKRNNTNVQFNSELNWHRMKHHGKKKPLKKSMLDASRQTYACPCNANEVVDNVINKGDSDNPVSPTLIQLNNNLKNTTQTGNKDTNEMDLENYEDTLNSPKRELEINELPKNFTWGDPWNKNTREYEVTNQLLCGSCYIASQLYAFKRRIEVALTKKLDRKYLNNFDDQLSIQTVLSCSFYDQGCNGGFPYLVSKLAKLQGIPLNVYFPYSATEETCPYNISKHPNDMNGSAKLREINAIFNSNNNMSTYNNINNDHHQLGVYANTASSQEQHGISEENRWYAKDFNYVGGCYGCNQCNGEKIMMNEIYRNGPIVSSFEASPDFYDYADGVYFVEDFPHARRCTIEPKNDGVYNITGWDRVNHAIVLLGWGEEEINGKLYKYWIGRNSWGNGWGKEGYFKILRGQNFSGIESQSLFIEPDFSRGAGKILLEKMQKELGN

First: Cc1ccc(C2CC(=O)c3cnc(NCc4ccccc4)nc3C2)cc1 (centres unmarked)
Second: CCn1c(C(=O)NCc2ccc(C)cc2)cc2oc3ccccc3c21
The “% Inhibition @ 10 uM” value of the first is lower: -1.92% for the first, -0.447% for the second.

Compared with CCOc1ccccc1C(=O)N(Cc1cccc(OC)c1)C1CCS(=O)(=O)C1 (centres unmarked), Cc1ccccc1OCC(=O)Nc1ccc(Cl)c(C(N)=O)c1 is lower in “% Inhibition @ 10 uM” value: -1.35% for the first, -6.44% for the second.

First: O=C(CSc1n[nH]c(-c2ccccc2)n1)Nc1ccc(Br)cn1
Second: CCc1nc(SC)ncc1C(=O)NCc1ccccc1C
The “% Inhibition @ 10 uM” value of the first is lower: 0.726% for the first, 2.9% for the second.

Going from CC1C2CC(CC2c2ccccc2O)C1(C)C (centres unmarked) to CC(C)Nc1nc(-c2ccccc2O)nc2ccccc12, the “% Inhibition @ 10 uM” value falls from 4.11% to 0.247%.

Compared with COc1ccc(CCNC(=O)CCc2nc(O)c3c4c(sc3n2)CCCC4)cc1OC, Cc1nc2c3ccccc3n3c(CCCC(=O)NCC4CCCO4)nnc3n2n1 (centres unmarked) is higher in “% Inhibition @ 10 uM” value: -0.228% for the first, 3.59% for the second.

Going from CN(C)CCN(C)Cc1ccccc1 to OCCN(Cc1ccccc1)Cc1ccc(F)c(F)c1, the “% Inhibition @ 10 uM” value rises from 1.14% to 1.74%.

Going from Cc1c(C(c2cc3c(cc2Br)OCO3)c2c(C)n(C)n(-c3ccccc3)c2=O)c(=O)n(-c2ccccc2)n1C to CN1C(=O)NC(c2ccccc2)C2=C1CN(c1ccccc1)C2=O (centres unmarked), the “% Inhibition @ 10 uM” value rises from -6.44% to 0.215%.

Compared with O=C(Nc1ccc(CN2CCOCC2)cc1)c1cc(Br)ccc1Cl, O=C(NC1CCN(Cc2ccccc2)CC1)c1ccc(CS(=O)Cc2cccc(Cl)c2)o1 (centres unmarked) is higher in “% Inhibition @ 10 uM” value: -0.173% for the first, 0.124% for the second.

First: Cc1cc(C)n(-c2nnc3c4ccccc4n(Cc4ccccc4)c3n2)n1
Second: N#Cc1cc(NC(=O)c2ccccc2)c(O)n2c1nc1ccccc12
The “% Inhibition @ 10 uM” value of the first is lower: -0.693% for the first, 2.36% for the second.

Going from Cc1nc2c(c(C)c1CCC(=O)N1CCCC(c3ccccc3)C1)c(=O)n(C)c(=O)n2C (centres unmarked) to Cn1c(=O)c2c(-c3ccc(C(C)(C)C)cc3)n(C(C)(C)C)cc2n(C)c1=O, the “% Inhibition @ 10 uM” value falls from 3.75% to -4.95%.

Going from O=C(NCc1cccnc1)c1ccc(Cl)cc1 to CNC(=O)c1cccnc1Nc1ccc(Cl)cc1, the “% Inhibition @ 10 uM” value falls from 5.09% to 3.24%.

Compared with Cc1cc(OCc2nc(-c3ccc(OCC(N)=O)cc3)no2)cc(C)c1Cl, COc1ccc(NC2=C(Cl)C(=O)N(c3ccc(C)cc3C)C2=O)cc1 is lower in “% Inhibition @ 10 uM” value: -0.828% for the first, -0.864% for the second.

Going from O=C1c2ccccc2C(=O)N1CCCN1CCN(CCCN2C(=O)c3ccccc3C2=O)CC1 to Brc1csc(CN2CCN(Cc3ccccc3)CC2)c1, the “% Inhibition @ 10 uM” value falls from 2.94% to -3.56%.

First: c1ccc(CSc2ncnc3[nH]cnc23)cc1
Second: Brc1ccc(OCc2ccccc2)c(CNCC2CCCO2)c1 (centres unmarked)
The “% Inhibition @ 10 uM” value of the first is higher: -3.06% for the first, -11.5% for the second.

Compared with CCOc1cc(/C=N/n2c(C)nnc2-n2nc(C)cc2C)ccc1OC, COc1ccc(C)cc1NC(=O)c1ccc(OC(F)F)c(OC)c1 is lower in “% Inhibition @ 10 uM” value: 4.18% for the first, 2.4% for the second.

Going from CC(=O)c1cccc(/N=c2\scc(-c3ccc(S(=O)(=O)N4CCOCC4)cc3)n2CCO)c1 to O=C(CCn1ccc2cc(S(=O)(=O)N3CCCC3)ccc21)NCc1ccccc1, the “% Inhibition @ 10 uM” value rises from -10.5% to 0.0496%.

Going from Cc1nc(SCC(=O)O)c(C#N)c(C)c1C to CCOC(=O)c1c(C)nc(NC(C)=O)nc1N, the “% Inhibition @ 10 uM” value falls from 72.9% to 1.29%.

First: CSc1nc2c(c(=O)n1-c1ccc(C)cc1)C1(CCCCC1)Cc1ccccc1-2
Second: CCOC(=O)c1c2c(n(-c3ccc(C)cc3)c1C)-c1ccccc1C(=O)C2=O
The “% Inhibition @ 10 uM” value of the first is lower: 3.01% for the first, 4.32% for the second.

First: CC(Cc1cccc(C(F)(F)F)c1)N[C@H]1CCCCNC1=O (some centres unmarked)
Second: CCOC(=O)N1CCC(NCc2cccc(F)c2)CC1
The “% Inhibition @ 10 uM” value of the first is higher: 1.38% for the first, -2.02% for the second.

Going from Cc1cc(C)c2nc3s/c(=C\c4ccccc4)c(=O)n3c2c1 to COc1ccc(C2=N/C(=C/C(C)=C/c3ccccc3)C(=O)O2)cc1Br, the “% Inhibition @ 10 uM” value rises from -1.66% to -0.251%.

First: CC(Oc1ccccc1)C(=O)Nc1ccccc1Br (centres unmarked)
Second: CCN(CC)C(=O)C(=O)c1cn(CC(=O)NCCc2ccccc2)c2ccccc12
The “% Inhibition @ 10 uM” value of the first is lower: 0.843% for the first, 2.77% for the second.

First: COC(=O)c1sccc1NC(=O)Cn1ncc2c1-c1cc(C)ccc1OC2
Second: CCCn1c2ccccc2c2cnn(CC(=O)Nc3cccnc3)c(=O)c21
The “% Inhibition @ 10 uM” value of the first is higher: 0.851% for the first, -1.71% for the second.

First: CCOc1ccc2nc(N3CCC(C(=O)NCCN(CC)CC)CC3)sc2c1
Second: CC1CCCC(NC(=O)C2CCN(c3nnc(-n4cccc4)s3)CC2)C1C (centres unmarked)
The “% Inhibition @ 10 uM” value of the first is lower: -3.35% for the first, -0.735% for the second.

First: O=S(=O)(Nc1ncccc1O)c1ccc(Cl)cc1
Second: CC(=O)N(C)c1ccc(NC(=O)COc2ccc(Cl)cc2Br)cc1
The “% Inhibition @ 10 uM” value of the first is higher: 3.05% for the first, -13.4% for the second.

Compared with O=S(=O)(c1cccc(Cl)c1)c1nnn2c1nc(NCCc1ccccc1)c1sccc12, O=C(NCc1ccccc1Cl)C1CCC(=O)N1Cc1ccc(F)cc1 (centres unmarked) is lower in “% Inhibition @ 10 uM” value: -2.55% for the first, -5.43% for the second.

First: COc1cc(NC(=O)c2cccs2)c(OC)cc1Cl
Second: CN1CCN(C(=O)c2cc(Cl)ccc2NC(=O)c2ccco2)CC1
The “% Inhibition @ 10 uM” value of the first is lower: -12.2% for the first, -8.92% for the second.

Compared with Cc1cc(C)c(-c2c(NC3CCCc4ccccc43)c(=O)c2=O)cc1C (centres unmarked), CC(NC(=O)c1csc2c1CCCC2)c1ccccc1 (centres unmarked) is lower in “% Inhibition @ 10 uM” value: 7.39% for the first, -6.95% for the second.

Going from Cc1cc(C)nc(NS(=O)(=O)c2ccc(NC(=O)c3ccc(S(=O)(=O)N4CCCCC4)cc3)cc2)n1 to Cc1ccc(C(=O)N/C(=C/c2ccccc2F)C(=O)NC(C)C)cc1, the “% Inhibition @ 10 uM” value rises from -0.424% to 1.35%.

Compared with Oc1nc2ccccc2n1CCCN1CCCCC1, CCCCCCc1nc2c(O)nc3ccccc3c2o1 is higher in “% Inhibition @ 10 uM” value: 6.64% for the first, 8.44% for the second.

Going from C=CCSc1nc(O)cc(=O)n1-c1ccccc1 to O=C(c1ccc2c(c1)OCO2)N1CCN(c2ccccc2)CC1, the “% Inhibition @ 10 uM” value falls from 0.273% to -1.32%.

First: Cc1cc(C)cc(COC(=O)N[C@@H](CC(C)C)C(=O)NCC#N)c1
Second: CCCN(CCC)CCNC(=O)CNC(=O)Cn1ccc2ccccc2c1=O
The “% Inhibition @ 10 uM” value of the first is higher: 0.174% for the first, -3.27% for the second.

Compared with CCSc1nn2c(=O)c(C)nnc2s1, CCCCCCn1c(SC)nc2c1c(=O)[nH]c(=O)n2C is lower in “% Inhibition @ 10 uM” value: -0.671% for the first, -2.24% for the second.

For CN1CCN(C(=O)Nc2ccccc2Cc2cccs2)CC1, the “% Inhibition @ 10 uM” value was -6.37% and 0.214%.
